Data set [1] has as its system His-tagged CD8 epitopes. Put plainly: Assay to determine orientation of macrocycle binding to CD8 Epitopes1-2. Set-up: species or system human. Conditions: polyglycine-substituted His-tagged CD8 epitopes at 2 μM. The procedure: Assay to determine orientation of macrocycle binding to CD8 Epitopes1-2. […] Wash Buffer without epitope was added as a control. […] Data are shown after subtraction of the no-epitope background.
For this experiment, the CD8 Epitope1 was re-synthesized with a His6 assay handle and polyglycine substitution of the sequences either N-terminal or C-terminal to the location of the click handle (R10) (FIG. 12A). The CD8 Epitope2 was similarly re-synthesized with a His6 assay handle and polyglycine substitution (N-terminal or C-terminal to K58) (FIG. 12B). Point ELISAs for the His-tagged CD8 epitopes were conducted against the immobilized macrocyclic peptide ligands. For PEG3-biotin-modified Cy(wplrf) (SEQ ID NO: 13), Cy(AKYRG) (SEQ ID NO: 8), Cy(rwfnv) (SEQ ID NO: 14), and Cy(ffrly) (SEQ ID NO: 17), maximum ELISA signals were obtained for binding to CD8 Epitope1N (dark bars, FIG. 12C) indicating preferential binding to the N-terminal portion of CD8 Epitope1. […] For PEG3-biotin-modified Cy(HGRGH) (SEQ ID NO: 21) and Cy(wsvnv) (SEQ ID NO: 34), maximum ELISA signals were obtained for binding to CD8 Epitope2C (light grey bars, FIG. 12D) indicating preferential binding to the C-terminal portion of CD8 Epitope2.

For data set [2], the system named is trypsin protease. In words: Point ELISA (protease sensitivity assay). Conditions: trypsin 1 h at 37° C.; 50 nM CD8α. (ELISA stands for enzyme-linked immunosorbent assay.)
Data set [3] addresses His-tagged CD8α human recombinant protein (Homo sapiens, UniProt P01732). Put plainly: Point ELISA (serum selectivity assay). It is filed as binding. Further details: purchased Origene TP760215. Particulars: 50 nM CD8α in 0%, 10%, 100% (v/v) human serum. The procedure:
Point ELISA (Serum selectivity assay).
The selective targeting of biotin-PEG3-modified macrocyclic peptide ligands in a serum background was tested in an ELISA format. […] Other PCCs, including Cy(AKYRG) (SEQ ID NO: 8), CY (PWTHG) (SEQ ID NO: 25), and Cy(wsvnv) (SEQ ID NO: 34), can detect CD8 protein in 10% serum.

Bridge positions count the residues as written; N and C are the ends. Square brackets hold non-standard residues; d marks the D form. Triazole bridges read from a SMILES are 1,4-linked. Peptide text beside a SMILES is read from it. * marks the point of attachment. ξ: configuration not given here. Biotinyl(3aR,4R,6aS) = O=C1N[C@@H]2[C@@H](CS[C@@H]2CCCCC(=O)*)N1; Biotin = O=C1N[C@H]2[C@H](CS[C@H]2CCCCC(=O)*)N1; Lys(N3) = [N-]=[N+]=NCCCC[C@H](N)C(=O)O; Thr(3ξ) = CC(O)[C@H](N)C(=O)O; AEEEA = NCCOCCOCCOCC(=O)O; Pra = C#CC[C@H](N)C(=O)O

Sequence of His-tagged CD8α human recombinant protein (P01732 22-235): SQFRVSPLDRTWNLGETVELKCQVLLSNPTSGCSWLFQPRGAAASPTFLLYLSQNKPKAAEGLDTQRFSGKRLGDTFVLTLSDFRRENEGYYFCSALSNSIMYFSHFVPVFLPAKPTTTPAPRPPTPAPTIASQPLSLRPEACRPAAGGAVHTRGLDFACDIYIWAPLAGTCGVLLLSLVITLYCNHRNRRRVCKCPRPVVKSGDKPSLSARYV

With `C[C@@H]1NC(=O)[C@@H](NC(=O)COCCOCCOCCNC(=O)CCCC[C@H]2SC[C@H]3NC(=O)N[C@H]32)Cc2cn(nn2)CCCC[C@@H](C(N)=O)NC(=O)CNC(=O)[C@H](CCCNC(=N)N)NC(=O)[C@H](Cc2ccc(O)cc2)NC(=O)[C@H](CCCCN)NC1=O` [biotin-PEG3-Cy(AKYRG)] ({Biotinyl(3aR,4R,6aS)-AEEEA}-[Pra]AKYRG[Lys(N3)]-NH2; triazole 1-7), the “epitope portion giving maximum ELISA signal (preferential binding)” value in data set [1] was “CD8 Epitope1N”. In addition, the “ELISA signal after trypsin protease treatment” value in data set [2] is given as 30 % of signal. For the same compound, the “human serum content in which CD8 protein can be detected” value (shortened to “human serum content”) in data set [3] came out at 10 % serum. Regarding `CC(O)[C@@H]1NC(=O)[C@H](Cc2c[nH]c3ccccc23)NC(=O)[C@@H]2CCCN2C(=O)[C@@H](NC(=O)COCCOCCOCCNC(=O)CCCC[C@H]2SC[C@H]3NC(=O)N[C@H]32)Cc2cn(nn2)CCCC[C@@H](C(N)=O)NC(=O)CNC(=O)[C@H](Cc2c[nH]cn2)NC1=O` (stereo partly drawn) [biotin-PEG3-Cy(PWTHG)] ({Biotinyl(3aR,4R,6aS)-AEEEA}-[Pra]PW[Thr(3ξ)]HG[Lys(N3)]-NH2; triazole 1-7), the “human serum content” value in data set [3] is 10 % serum. `CC(C)C[C@H]1NC(=O)[C@@H](CCCNC(=N)N)NC(=O)[C@@H](Cc2ccccc2)NC(=O)[C@@H](Cc2ccccc2)NC(=O)[C@@H](NC(=O)COCCOCCOCCNC(=O)CCCC[C@@H]2SC[C@@H]3NC(=O)N[C@@H]32)Cc2cn(nn2)CCCC[C@@H](C(N)=O)NC(=O)[C@@H](Cc2ccc(O)cc2)NC1=O` [biotin-PEG3-Cy(ffrly)] ({Biotin-AEEEA}-[Pra][dF][dF][dR][dL][dY][Lys(N3)]-NH2; triazole 1-7): in data set [1], the “epitope portion giving maximum ELISA signal (preferential binding)” value is “CD8 Epitope1N”. The “stability to trypsin digestion (in words)” value (shortened to “stability”) in data set [2] was “nearly identical signals before and after digestion”. Take `CC(C)[C@H]1NC(=O)[C@@H](CC(N)=O)NC(=O)[C@@H](Cc2ccccc2)NC(=O)[C@@H](Cc2c[nH]c3ccccc23)NC(=O)[C@@H](CCCNC(=N)N)NC(=O)[C@@H](NC(=O)COCCOCCOCCNC(=O)CCCC[C@@H]2SC[C@@H]3NC(=O)N[C@@H]32)Cc2cn(nn2)CCCC[C@@H](C(N)=O)NC1=O` [biotin-PEG3-Cy(rwfnv)] ({Biotin-AEEEA}-[Pra][dR][dW][dF][dN][dV][Lys(N3)]-NH2; triazole 1-7): the “epitope portion giving maximum ELISA signal (preferential binding)” value in data set [1] is recorded as “CD8 Epitope1N”. In addition, in data set [2], the “ELISA signal after trypsin protease treatment” value is on record as 80 % of signal. For the compound `CC(C)C[C@H]1NC(=O)[C@@H](CO)NC(=O)[C@@H](NC(=O)COCCOCCOCCNC(=O)CCCC[C@H]2SC[C@H]3NC(=O)N[C@H]32)Cc2cn(nn2)CCCC[C@@H](C(N)=O)NC(=O)CNC(=O)[C@@H](Cc2ccccc2)NC(=O)[C@@H](CCCNC(=N)N)NC1=O` [biotin-PEG3-Cy(slrfG)] ({Biotinyl(3aR,4R,6aS)-AEEEA}-[Pra][dS][dL][dR][dF]G[Lys(N3)]-NH2; triazole 1-7), in data set [2], the “stability” value is “nearly identical signals before and after digestion”. Consider `CC(C)C[C@H]1NC(=O)[C@H]2CCCN2C(=O)[C@@H](Cc2c[nH]c3ccccc23)NC(=O)[C@@H](NC(=O)COCCOCCOCCNC(=O)CCCC[C@@H]2SC[C@@H]3NC(=O)N[C@@H]32)Cc2cn(nn2)CCCC[C@@H](C(N)=O)NC(=O)[C@@H](Cc2ccccc2)NC(=O)[C@@H](CCCNC(=N)N)NC1=O` [biotin-PEG3-Cy(wplrf)] ({Biotin-AEEEA}-[Pra][dW][dP][dL][dR][dF][Lys(N3)]-NH2; triazole 1-7), for which the “epitope portion giving maximum ELISA signal (preferential binding)” value in data set [1] is recorded as “CD8 Epitope1N”. In addition, in data set [2], the “stability” value was “nearly identical signals before and after digestion”. As for `CC(C)[C@H]1NC(=O)[C@@H](CC(N)=O)NC(=O)[C@@H](C(C)C)NC(=O)[C@@H](CO)NC(=O)[C@@H](Cc2c[nH]c3ccccc23)NC(=O)[C@@H](NC(=O)COCCOCCOCCNC(=O)CCCC[C@H]2SC[C@H]3NC(=O)N[C@H]32)Cc2cn(nn2)CCCC[C@@H](C(N)=O)NC1=O` [biotin-PEG3-Cy(wsvnv)] ({Biotinyl(3aR,4R,6aS)-AEEEA}-[Pra][dW][dS][dV][dN][dV][Lys(N3)]-NH2; triazole 1-7), the “stability” value in data set [2] is “nearly identical signals before and after digestion”. The “human serum content” value in data set [3] is listed as 10 % serum.

(Values after US12594350B2, “CD8-specific capture agents, compositions, and methods of using and making” (Regeneron Pharmaceuticals, Inc., priority 2016, dated 2026).)
